# Measured values: the supplement of paper PMC8728848
# The other results are listed elsewhere or left out.
# B1: AFL5 (Aspergillus fumigatus), Q4WB00 (protein)
# chain: MDNFMEMTKKLGHQPELLRLRALDATYDDALEGKLVVAPLDMSEPGKKILDSGTADGTWLRNVRSKQSVPHDYYGSDVEGELFPKDPDGITYFAHSFKDPWPQQYLGFFDLVHIRGSLAGSAPEGPAPVIQNLTTLLKPGGWVQLMEMNAFSPPPNGPAMTDFAKMASEMFTGIGVGDFANNNKSMLEDAGLKNVQEKRVIVNLGKKAKPELHDQSIHGVTGPIVPLTSVARTVKSSFTGEQLDALPARVKEELETEGGQVEMIIAFGQKA
# Key:
# Assay in all cases: glycan array binding signal (z-score within array); higher = stronger binding
# Settings in all cases: glycan notation: IUPAC condensed, linker removed
# [1] = biological target: Neu5Ac(a2-3)Gal6S(b1-4)[Fuc(a1-3)]GlcNAc
# In short: (§1)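 The Consortium for Functional Glycomics database supplied 3228 glycan arrays, of which those lacking an available protein sequence were dropped. The binding signal, a within-array Z-score, was averaged across arrays of the same protein sequence and across linkers. Negative scores can be read as non-binding.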
# Neu5Ac(a2-3)GalNAc = biological target: Neu5Ac(a2-3)GalNAc
# In short: as §1
# [2] = biological target: Neu5Ac(a2-3)GalNAc(b1-4)GlcNAc
# In short: as §1
# [3] = biological target: Neu5Ac(a2-3)[GalNAc(b1-4)]Gal(b1-4)Glc
# In short: as §1
# [4] = biological target: Neu5Ac(a2-3)[GalNAc(b1-4)]Gal(b1-4)GlcNAc
# In short: as §1
# [5] = biological target: Neu5Ac(a2-3)[GalNAc(b1-4)]Gal(b1-4)GlcNAc(b1-3)GalNAc
# In short: as §1
# [6] = biological target: Neu5Ac(a2-3)[Neu5Ac(a2-6)]GalNAc
# In short: as §1
# Neu5Ac(a2-6)Gal = biological target: Neu5Ac(a2-6)Gal
# In short: as §1
# [7] = biological target: Neu5Ac(a2-6)Gal(b1-3)GlcNAc(b1-3)[Gal(b1-4)GlcNAc(b1-6)]Gal(b1-4)Glc
# In short: as §1
# Neu5Ac(a2-6)Gal(b1-4)Glc = biological target: Neu5Ac(a2-6)Gal(b1-4)Glc
# In short: as §1
# [8] = biological target: Neu5Ac(a2-6)Gal(b1-4)GlcNAc
# In short: as §1
# [9] = biological target: Neu5Ac(a2-6)Gal(b1-4)GlcNAc(b1-2)Man
# In short: as §1
# [10] = biological target: Neu5Ac(a2-6)Gal(b1-4)GlcNAc(b1-2)Man(a1-3)Man(b1-4)GlcNAc(b1-4)GlcNAc
# In short: as §1
# [11] = biological target: Neu5Ac(a2-6)Gal(b1-4)GlcNAc(b1-2)Man(a1-3)[Gal(b1-4)GlcNAc(b1-2)Man(a1-6)]Man(b1-4)GlcNAc(b1-4)GlcNAc
# In short: as §1
# [12] = biological target: Neu5Ac(a2-6)Gal(b1-4)GlcNAc(b1-2)Man(a1-3)[GlcNAc(b1-2)Man(a1-6)]Man(b1-4)GlcNAc(b1-4)GlcNAc
# In short: as §1
# [13] = biological target: Neu5Ac(a2-6)Gal(b1-4)GlcNAc(b1-2)Man(a1-3)[GlcNAc(b1-4)][Neu5Ac(a2-6)Gal(b1-4)GlcNAc(b1-2)Man(a1-6)]Man(b1-4)GlcNAc(b1-4)GlcNAc
# In short: as §1
# [14] = biological target: Neu5Ac(a2-6)Gal(b1-4)GlcNAc(b1-2)Man(a1-3)[Man(a1-6)]Man(b1-4)GlcNAc(b1-4)GlcNAc
# In short: as §1
# [15] = biological target: Neu5Ac(a2-6)Gal(b1-4)GlcNAc(b1-2)Man(a1-3)[Neu5Ac(a2-3)Gal(b1-4)GlcNAc(b1-2)Man(a1-6)]Man(b1-4)GlcNAc(b1-4)GlcNAc
# In short: as §1
# [16] = biological target: Neu5Ac(a2-6)Gal(b1-4)GlcNAc(b1-2)Man(a1-3)[Neu5Ac(a2-6)Gal(b1-4)GlcNAc(b1-2)Man(a1-6)]Man(b1-4)GlcNAc(b1-4)GlcNAc
# In short: as §1
# [17] = biological target: Neu5Ac(a2-6)Gal(b1-4)GlcNAc(b1-2)Man(a1-3)[Neu5Ac(a2-6)Gal(b1-4)GlcNAc(b1-2)Man(a1-6)]Man(b1-4)GlcNAc(b1-4)[Fuc(a1-6)]GlcNAc
# In short: as §1
# [18] = biological target: Neu5Ac(a2-6)Gal(b1-4)GlcNAc(b1-2)Man(a1-6)Man(b1-4)GlcNAc(b1-4)GlcNAc
# In short: as §1
# [19] = biological target: Neu5Ac(a2-6)Gal(b1-4)GlcNAc(b1-2)Man(a1-6)[Gal(b1-4)GlcNAc(b1-2)Man(a1-3)]Man(b1-4)GlcNAc(b1-4)GlcNAc
# In short: as §1
# [20] = biological target: Neu5Ac(a2-6)Gal(b1-4)GlcNAc(b1-2)Man(a1-6)[GlcNAc(b1-2)Man(a1-3)]Man(b1-4)GlcNAc(b1-4)GlcNAc
# In short: as §1
# [21] = biological target: Neu5Ac(a2-6)Gal(b1-4)GlcNAc(b1-2)Man(a1-6)[Man(a1-3)]Man(b1-4)GlcNAc(b1-4)GlcNAc
# In short: as §1
# [22] = biological target: Neu5Ac(a2-6)Gal(b1-4)GlcNAc(b1-2)[Neu5Ac(a2-6)Gal(b1-4)GlcNAc(b1-4)]Man(a1-3)[GlcNAc(b1-4)][Neu5Ac(a2-6)Gal(b1-4)GlcNAc(b1-2)[Neu5Ac(a2-6)Gal(b1-4)GlcNAc(b1-6)]Man(a1-6)]Man(b1-4)GlcNAc(b1-4)GlcNAc
# In short: as §1
# [23] = biological target: Neu5Ac(a2-6)Gal(b1-4)GlcNAc(b1-2)[Neu5Ac(a2-6)Gal(b1-4)GlcNAc(b1-4)]Man(a1-3)[GlcNAc(b1-4)][Neu5Ac(a2-6)Gal(b1-4)GlcNAc(b1-4)Man(a1-6)]Man(b1-4)GlcNAc(b1-4)GlcNAc
# In short: as §1
# [24] = biological target: Neu5Ac(a2-6)Gal(b1-4)GlcNAc(b1-2)[Neu5Ac(a2-6)Gal(b1-4)GlcNAc(b1-6)]Man(a1-6)[Neu5Ac(a2-6)Gal(b1-4)GlcNAc(b1-2)Man(a1-3)][GlcNAc(b1-4)]Man(b1-4)GlcNAc(b1-4)GlcNAc
# In short: as §1
# [25] = biological target: Neu5Ac(a2-6)Gal(b1-4)GlcNAc(b1-3)Gal(b1-3)GlcNAc
# In short: as §1
# [26] = biological target: Neu5Ac(a2-6)Gal(b1-4)GlcNAc(b1-3)Gal(b1-4)GlcNAc
# In short: as §1
# [27] = biological target: Neu5Ac(a2-6)Gal(b1-4)GlcNAc(b1-3)Gal(b1-4)GlcNAc(b1-2)Man(a1-3)[Neu5Ac(a2-6)Gal(b1-4)GlcNAc(b1-3)Gal(b1-4)GlcNAc(b1-2)Man(a1-6)]GalNAc
# In short: as §1
# [28] = biological target: Neu5Ac(a2-6)Gal(b1-4)GlcNAc(b1-3)Gal(b1-4)GlcNAc(b1-3)Gal(b1-4)GlcNAc
# In short: as §1
# [29] = biological target: Neu5Ac(a2-6)Gal(b1-4)GlcNAc(b1-3)Gal(b1-4)GlcNAc(b1-3)Gal(b1-4)GlcNAc(b1-2)Man(a1-3)[Neu5Ac(a2-6)Gal(b1-4)GlcNAc(b1-3)Gal(b1-4)GlcNAc(b1-3)Gal(b1-4)GlcNAc(b1-2)Man(a1-6)]GalNAc
# In short: as §1
# [30] = biological target: Neu5Ac(a2-6)Gal(b1-4)GlcNAc(b1-3)Gal(b1-4)GlcNAc(b1-3)GalNAc
# In short: as §1
# [31] = biological target: Neu5Ac(a2-6)Gal(b1-4)GlcNAc(b1-3)Gal(b1-4)GlcNAc(b1-3)[Neu5Ac(a2-6)Gal(b1-4)GlcNAc(b1-3)Gal(b1-4)GlcNAc(b1-6)]GalNAc
# In short: as §1
# [32] = biological target: Neu5Ac(a2-6)Gal(b1-4)GlcNAc(b1-3)Gal(b1-4)GlcNAc(b1-6)[Gal(b1-3)]GalNAc
# In short: as §1
# [33] = biological target: Neu5Ac(a2-6)Gal(b1-4)GlcNAc(b1-3)Gal(b1-4)[Fuc(a1-3)]GlcNAc(b1-3)Gal(b1-4)[Fuc(a1-3)]GlcNAc
# In short: as §1
# [34] = biological target: Neu5Ac(a2-6)Gal(b1-4)GlcNAc(b1-3)GalNAc
# In short: as §1
binder,measurement,setting,value
B1,glycan array binding signal (z-score),[1],-0.331
same,glycan array binding signal (z-score),Neu5Ac(a2-3)GalNAc,0.281
same,glycan array binding signal (z-score),[2],-0.268
same,glycan array binding signal (z-score),[3],-0.53
same,glycan array binding signal (z-score),[4],-0.407
same,glycan array binding signal (z-score),[5],0.081
same,glycan array binding signal (z-score),[6],0.264
same,glycan array binding signal (z-score),Neu5Ac(a2-6)Gal,-0.303
same,glycan array binding signal (z-score),[7],-0.394
same,glycan array binding signal (z-score),Neu5Ac(a2-6)Gal(b1-4)Glc,-0.26
same,glycan array binding signal (z-score),[8],-0.288
same,glycan array binding signal (z-score),[9],-0.154
same,glycan array binding signal (z-score),[10],-0.037
same,glycan array binding signal (z-score),[11],0.333
same,glycan array binding signal (z-score),[12],0.268
same,glycan array binding signal (z-score),[13],-0.373
same,glycan array binding signal (z-score),[14],-0.084
same,glycan array binding signal (z-score),[15],0.04
same,glycan array binding signal (z-score),[16],1.03
same,glycan array binding signal (z-score),[17],0.123
same,glycan array binding signal (z-score),[18],-0.018
same,glycan array binding signal (z-score),[19],0.02
same,glycan array binding signal (z-score),[20],-0.146
same,glycan array binding signal (z-score),[21],-0.379
same,glycan array binding signal (z-score),[22],-0.169
same,glycan array binding signal (z-score),[23],0.082
same,glycan array binding signal (z-score),[24],-0.153
same,glycan array binding signal (z-score),[25],-0.045
same,glycan array binding signal (z-score),[26],-0.438
same,glycan array binding signal (z-score),[27],0.677
same,glycan array binding signal (z-score),[28],0.08
same,glycan array binding signal (z-score),[29],2.17
same,glycan array binding signal (z-score),[30],-0.298
same,glycan array binding signal (z-score),[31],0.005
same,glycan array binding signal (z-score),[32],0.362
same,glycan array binding signal (z-score),[33],-0.222
same,glycan array binding signal (z-score),[34],-0.271
